Test results reported in PubChem BioAssay AID485281 (National Center for Advancing Translational Sciences (NCATS), 2010).
Among all 350,000 compounds or so, about 260 (0.074%) were called active. Inconclusive results, whose numbers are uncertain, are shown with a selection of clear calls. Calls come from the whole dose curve; as a rule, active = well fitted inhibition curve with a large enough effect; inconclusive = small, poorly fitted or top-dose-only effect; inactive = no such curve, though single readings can be large or run the other way. Potencies beside an inconclusive call are fits to weak or partial responses and may not hold up.
% is set by controls: 0 for no effect and ±100 for the full control effect; potency is the fitted concentration of half-maximal effect; tags give direction and shape of the fitted curve.
Note: nearly all actives have a fitted effect of over 20% in size.

Each compound was assayed against Ferritin light chain (Equus caballus) (UniProt P02791) (assay: qHTS Assay for Identification of Novel General Anesthetics). Settings: apoferritin/1-aminoanthracene competitive binding, fluorescence; activity change, negative = displacement: at 77.5 µM (top of the series).
UniProt P02791, sequence (P02791 whole entry, looked up): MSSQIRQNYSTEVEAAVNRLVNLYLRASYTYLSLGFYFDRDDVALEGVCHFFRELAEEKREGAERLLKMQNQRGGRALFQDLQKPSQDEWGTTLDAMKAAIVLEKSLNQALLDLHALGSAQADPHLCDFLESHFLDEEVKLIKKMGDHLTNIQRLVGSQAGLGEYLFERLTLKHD
Outline: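 Concentration-response curves derived by four-parameter Hill fitting of normalized fluorescence, where compounds displaced 1-AMA from 10 uM horse apoferritin following a brief 10 min room-temperature incubation; propofol titration acted as positive control.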
For `COc1ccc2cc(CN(CC3CCCO3)C(=S)NCc3ccco3)c(=O)[nH]c2c1` (stereo not drawn), the Potency was inconclusive: 17.8 µM [inhibitor, partial curve].
For `COc1cc(-c2ccc(N=Nc3ccc4c(S(=O)(=O)O)cc(S(=O)(=O)O)c(N)c4c3O)c(OC)c2)ccc1N=Nc1ccc2c(S(=O)(=O)O)cc(S(=O)(=O)O)c(N)c2c1O`, the “activity change, negative = displacement” value was inactive: -8.24% [at 29.3 µM].
In the case of `S=C(NCCCN1CCOCC1)Nc1ccc(Nc2ccccc2)cc1`, the Potency is reported as inconclusive: 31.6 µM [inhibitor, partial curve].
For `Cc1ccc(C)c(N2CCN(C(=O)CCS(=O)(=O)c3ccc4c(c3)CC(=O)N4C)CC2)c1`, the Potency was inconclusive: 28.2 µM [inhibitor, partial curve].
In the case of `CCOC(=O)C1=C(C)NC(=O)NC1c1c(OCC(=O)N2CCCCC2)ccc2ccccc12` (stereo not drawn), the Potency is reported as inconclusive: 39.8 µM [inhibitor, partial curve].
In the case of `COc1ccc(C(=O)Nc2nc3ccccc3[nH]2)cc1`, the “activity change, negative = displacement” value is reported as inactive: -11.9%.
In the case of `O=C(NC1CCCCC1)c1c[nH]c2ccc(S(=O)(=O)Nc3ccccc3F)cc2c1=O`, the Potency is reported as inconclusive: 2.82 µM [inhibitor, full curve].
With `Cc1ccc2cccc(NC(=O)C(F)(F)F)c2n1` the Potency was inconclusive: 28.2 µM [inhibitor, single point].
`CN(C)S(=O)(=O)c1cccc(-c2nnc(-c3ccccc3)o2)c1` was tested, and the Potency was inconclusive: 39.8 µM [inhibitor, partial curve].
In the case of `CC1CCCN(c2cc3c(cc2F)c(=O)c(S(=O)(=O)c2cccc(Cl)c2)cn3C)C1` (stereo not drawn), the Potency is reported as inconclusive: 3.55 µM [inhibitor, partial curve].
`Cc1cccc(NC(=S)N/C(=N/S(=O)(=O)c2ccccc2)c2ccccc2)c1` was tested, and the “activity change, negative = displacement” value was inactive: 1.61%.
With `COc1ccc(-c2[nH]ncc2CN2CCN(c3ccccn3)CC2)c(OC)c1` the “activity change, negative = displacement” value was inactive: -3.36%.
With `Cn1cc(C(=O)NCc2ccc(Cl)cc2)c(=O)c2cc(S(=O)(=O)N3CCCCCC3)ccc21` the Potency was inconclusive: 3.98 µM [inhibitor, full curve].
In the case of `CC(=O)c1sc(NC(=O)c2ccc3c(c2)OCO3)nc1C`, the “activity change, negative = displacement” value is reported as inactive: -6.42%.
`COc1ccc(Cc2nnc(SCC(=O)c3cccc([N+](=O)[O-])c3)n2C)cc1` was tested, and the Potency was inconclusive: 25.1 µM [inhibitor, partial curve].
In the case of `CCCCC(=NCCc1c(C)[nH]c2ccc(OC)cc12)C1=C(O)CC(c2ccccc2)CC1=O` (stereo not drawn), the “activity change, negative = displacement” value is reported as inactive: -3.92%.
For `O=C(COc1ncnc2cc([N+](=O)[O-])ccc12)NCc1ccc2c(c1)OCO2`, the Potency was inconclusive: 39.8 µM [inhibitor, single point].
`O=C(NC(=S)Nc1nc2c(s1)CCCC2)c1ccccc1` was tested, and the “activity change, negative = displacement” value was inactive: -2.54%.
